Results: the supplement of paper PMC12645437, “Orthogonal IMiD-Degron Pairs Induce Selective Protein Degradation in Cells” (ACS Chemical Biology, 2025)
Some of the results follow.

biological target: no compound (DMSO); experiment: log2 fold change of degron read counts, EGFP-low vs EGFP+ sorted cells; higher = lower degron-EGFP level without compound (poor expression or instability); details: compound: DMSO control; 18 h
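Note: jurkat cells carrying a lentiviral library of mutant zinc finger degrons fused to EGFP plus mCherry, mCherry+ cells FACS sorted, degron abundance counted by next-generation sequencing.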

Sequence	log2 fold change of degron read counts
FLCNQCGHMFTQKGNLLRHIKL	-0.487
FECNVCGAKFTQKGNLLRHIKL	-1.07
FQCNQCGADFTQKGNLLRHIKL	-1.18
FACPICGRAFTQKGNLLRHIKL	-0.414
FHCDQCGAPFTQKGNLLRHIKL	-2.27
FKCPQCGAQFTQKGNLLRHIKL	-1.55
FECNICGACFTQKGNLLRHIKL	-0.964
FHCNQCGADFTQKGNLLRHIKL	-1.15
FACPVCGAAFTQKGNLLRHIKL	-0.357
FACNICGAKFTQKGNLLRHIKL	-0.554
FRCEVCGAHFTQKGNLLRHIKL	-0.866
FMCEQCGAIFTQKGNLLRHIKL	-0.358
FMCSVCGHEFTQKGNLLRHIKL	-1.62
FSCNQCGHEFTQKGNLLRHIKL	-0.735
FQCPQCGALFTQKGNLLRHIKL	-0.538
FWCEICGACFTQKGNLLRHIKL	-0.378

Sequence	log2 fold change of degron read counts
FACNQCGRVFTQKGNLLRHIKL	0.209
FVCNQCGRHFTQKGNLLRHIKL	-0.704
FGCEICGALFTQKGNLLRHIKL	-0.752
FDCPVCGAYFTQKGNLLRHIKL	-0.379
FKCEICGRFFTQKGNLLRHIKL	-1.65
FGCSVCGHIFTQKGNLLRHIKL	1.02
FDCEICGHEFTQKGNLLRHIKL	-1.19
FLCPICGRNFTQKGNLLRHIKL	-0.237
FLCEICGAEFTQKGNLLRHIKL	-2.74
FWCDVCGASFTQKGNLLRHIKL	-0.493
FTCSVCGHYFTQKGNLLRHIKL	0.0416
FYCPVCGAHFTQKGNLLRHIKL	0.556
FWCPQCGARFTQKGNLLRHIKL	0.487
LMCPICGFICTQKGNLLRHIKL	1.7
FFCPICGHKFTQKGNLLRHIKL	-0.263
FACNQCGRWFTQKGNLLRHIKL	1.06
